Results on 62 molecules are retold here after ChEMBL document CHEMBL1201862, “PubChem BioAssay data set” (2004).

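These data come from cells grown in 96-well plates and exposed to compound for 48 hours at five concentrations. GI50 is the concentration that inhibits growth by half.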 Activity calls are given as the source filed them. No stated cut-off is given here; in the data, active = GI50 up to about 1.1 µM and inactive = higher.

In the assay the test system is NCI-H322M. Nature of the assay: inhibition of tumour cell growth, NCI panel, 48 h.
In the case of `Oc1cc(-c2cccc(Br)c2)nc2cc3c(cc12)OCO3`, the GI50 is inactive: 8.75 µM.

As to `Nc1nc(N)c(CCCCc2ccccc2)c(N)n1`, the GI50 is inactive: > 100 µM.

Consider `N=C(CC/C(N)=N/O)NO`, for which the GI50 was inactive: > 100 µM.

As for `CCOc1ccccc1-c1nc2c(s1)C(=O)c1ccccc1C2=O`, the GI50 is inactive: 15.9 µM.

On to `c1ccc2c(c1)ccc1nc(-c3ccc4c(c3)OCO4)c3c(c12)CCCC3`, for which the GI50 is inactive: 81.8 µM.

As to `O=C(Nc1ccc(F)cc1)C(=O)C(C(=O)c1ccccc1F)C1OC(=O)c2ccccc21` (configuration not stated), the GI50 is inactive: 36.1 µM.

With `CC1=C2C(O)C(C(C)C(=O)NC(C)C)CCC2(C)C=CC1=O` (configuration not stated), the GI50 was inactive: > 100 µM.

With `CC(C)(C)OC(=O)[C@@H]1CCC(=S)N1Cc1ccccc1`, the GI50 is inactive: > 100 µM.

As for `Nc1nc(F)nc2c1ncn2C1OC(COP(=O)(O)O)C(O)C1O` (configuration not stated), the GI50 was inactive: 242 µM.

Regarding `Clc1ccc(/C=c2\nc(-c3ccccc3)n3c2nc2ccccc23)cc1`, the GI50 is inactive: > 100 µM.

For `Cc1ccc(O)c(C(c2cccc(C(c3cc(C)ccc3O)c3cc(C)ccc3O)c2)c2cc(C)ccc2O)c1`, the GI50 was inactive: 1.61 µM.

On to `COC(=O)c1sc2nc(Nc3ccccc3)/c(=N\c3ccccc3)sc2c1C`, for which the GI50 was inactive: > 100 µM.

Regarding `Cc1ccccc1N(CCC#N)C1=NN(C(=O)CC(=O)Nc2ccc(Cl)cc2)C(c2ccccc2)C1` (configuration not stated), the GI50 was inactive: > 100 µM.

`c1ccc(-c2nnc(SCc3c[nH]c4ccccc34)n2-c2ccccc2)cc1`: the GI50 was inactive: 28.1 µM.

For `O=C(O)CCc1ccc2c(c1)CC1(Cc3ccccc3C1)C2`, the GI50 is inactive: > 100 µM.

With `CCOC(=O)CC/C(=N/Nc1ccc(Cl)cc1[N+](=O)[O-])C(=O)OCC`, the GI50 was inactive: > 100 µM.

On to `O=c1[nH]nc(-c2ccccc2)n1/N=C/c1ccc([N+](=O)[O-])cc1`, for which the GI50 is inactive: 12 µM.

For `CN(C)c1ccccc1CC(c1c[nH]c2ccccc12)c1c[nH]c2ccccc12`, the GI50 was inactive: 14 µM.

In the case of `CCN(CC)CC[S+]([O-])c1c2cc(OC)ccc2nc2ccc(OC)cc12` (configuration not stated), the GI50 was inactive: 16.3 µM.

For `O=C1Nc2ccccc2/C1=C\c1c(-c2ccccc2)nc2n1CCS2`, the GI50 is inactive: 23.1 µM.

Consider `CC(C)Oc1c(C2(c3ccccc3O)SCCCS2)c(=O)c1=O`, for which the GI50 is inactive: > 100 µM.

For the molecule `N#Cc1c(-c2ccccc2)c(/C=N/c2ccc(Cl)cc2)c(=O)n2c1[nH]c1ccccc12`, the GI50 is inactive: > 100 µM.

Consider `CN(N=O)C(=O)NC(CCCCNC(=O)OCc1ccccc1)C(=O)OCc1ccccc1` (configuration not stated), for which the GI50 is inactive: > 100 µM.

In the case of `O=c1cc(NNCc2ccccc2)[nH]c(=O)[nH]1`, the GI50 was inactive: > 100 µM.

As to `O=C(Oc1ccc(OC(Oc2ccccc2)c2ccccc2)cc1)c1ccccc1` (configuration not stated), the GI50 was inactive: > 31.6 µM.

Regarding `COc1cc(C(C)c2cc3c(cc2OCCCCOc2cc4c(cc2C(C)c2cc(OC)c(OC)c(OC)c2)OCO4)OCO3)cc(OC)c1OC` (configuration not stated), the GI50 is inactive: 80.9 µM.

Consider `C[C@H](O)C1CC(Cn2nnc3c(N)ncnc32)C1(C)C` (some centres not stated), for which the GI50 is inactive: > 100 µM.

`CC(C)N1CC2CN(Cc3ccccc3)CC(C1)C2=O`: the GI50 is inactive: > 100 µM.

As for `O=[N+]([O-])c1ccc2nc(=S)[nH]n2c1`, the GI50 was inactive: > 100 µM.

As for `Cc1cc(Oc2cnc(=O)[nH]c2)cs1`, the GI50 is inactive: > 100 µM.

Consider `C/C(=N\NC(=[Se])N1CCN(c2ccccn2)CC1)c1ccccn1`, for which the GI50 is active: 0.01 µM.

Regarding `CCOn1cc(C[C@@]2(O)C(=O)OC3[C@@H](O)CO[C@@]32O)c2ccccc21` (some centres not stated), the GI50 is inactive: > 100 µM.

Regarding `CN1CCN(CCCBr)CC1`, the GI50 was inactive: > 100 µM.

With `O=C(Cc1ccccc1CCO)NCCc1ccccc1`, the GI50 was inactive: > 100 µM.

Take `O=C1C/C(=N/c2ccc(Cl)cc2)C(c2ccccc2)N1c1ccccc1` (configuration not stated): the GI50 is inactive: 20.2 µM.

As for `O=c1[nH]ncc2[nH]c3c(c12)CCc1ccccc1-3`, the GI50 was inactive: 37.2 µM.

For the molecule `COC(=O)C(Cc1ccc2c(c1)OCO2)(NC(=O)c1ccccc1)P(=O)(OC)OC` (configuration not stated), the GI50 is inactive: > 100 µM.

With `COC(=O)C(=O)C1(CCC(C)=O)c2ccccc2-c2ccccc21`, the GI50 was inactive: > 100 µM.

`OCC1OC(NCCNCCNC2OC(CO)C(O)C(O)C2O)C(O)C(O)C1O` (configuration not stated): the GI50 is inactive: > 100 µM.

As for `CCOC(=O)NC(Nc1ccc(Cl)cn1)(C(F)(F)F)C(F)(F)F`, the GI50 was inactive: > 100 µM.

Regarding `O=C1CC2=CCCC2O1` (configuration not stated), the GI50 is inactive: > 100 µM.

Regarding `CCc1c[n+]([O-])c(C)cc1[N+](=O)[O-]`, the GI50 is inactive: 30.1 µM.

For the molecule `CC(C)OP(=O)(OC(C)C)/C(C#N)=C/c1ccco1`, the GI50 is inactive: > 100 µM.

As for `CCC1=C(C)C(=O)N/C1=C\c1[nH]c(C)c([C@H](C)CCN)c1C`, the GI50 was inactive: 14.7 µM.

On to `CCN(CC)CSc1nc2ccccc2o1`, for which the GI50 was inactive: > 100 µM.

As for `CC(C)[C@@H]1CC[C@@H](C)C[C@H]1OC(=O)c1c2n(c3ccccc13)C[C@H]1OC(C)(C)O[C@@H]21`, the GI50 is inactive: 18.5 µM.

Consider `C=CCOCn1ccc(NC(=O)c2ccccc2)nc1=O`, for which the GI50 was inactive: > 100 µM.

Consider `Cc1cccc(/N=N/c2c(C)nn(C(=O)CC(=O)Nc3ccccc3)c2C)c1`, for which the GI50 was inactive: > 100 µM.

In the case of `COC(=O)C1=C(C)NC(C)=C(C(=O)OC)C1c1ccc(N=O)cc1`, the GI50 is inactive: > 100 µM.

As for `O=C1c2ccccc2C(=O)N1CC1S(=O)(=O)OCCOS1(=O)=O`, the GI50 was inactive: > 100 µM.

For `COc1ccc(/C=C2\CCC(CNc3cc(C)on3)C2=O)cc1` (configuration not stated), the GI50 was inactive: > 100 µM.

Take `Cc1ccc(/C=C2\NC(=S)N(CN3CCOCC3)C2=O)cc1`: the GI50 was inactive: > 100 µM.

Turning to `CCCCc1ccc(Nc2nc3c(ncn3C3CC(O)C(CN=[N+]=[N-])O3)c(=O)[nH]2)cc1` (configuration not stated), the GI50 is inactive: > 100 µM.

`Cn1ccnc1Sc1ccc(/C=N\NC(=O)c2cccc(F)c2)cc1[N+](=O)[O-]`: the GI50 was inactive: 25.8 µM.

For `O=c1c2ccccc2[nH]c(=S)n1-c1ccc(/N=N/c2cccc3cc(O)ccc23)cc1`, the GI50 is inactive: > 100 µM.

As to `CCOC(=O)C(NC(=O)CC)(N1CCN(c2cc3c(cc2F)c(=O)c(C(=O)O)cn3C2CC2)CC1)C(F)(F)F` (configuration not stated), the GI50 was inactive: 46.6 µM.

As for `CCN1CCC(O)(/C=C/c2ccccc2C)C(C(=O)/C=C/c2ccccc2C)C1` (configuration not stated), the GI50 is inactive: 3.48 µM.

Consider `O=S(=O)(O)SC/C=C\CSS(=O)(=O)O`, for which the GI50 was inactive: > 100 µM.

Consider `Cc1ccc(/N=N/c2c(O)c(C(=O)O)cc3ccccc23)c(S(=O)(=O)O)c1`, for which the GI50 is inactive: > 100 µM.

In the case of `COc1ccc2cc(C(C)C(=O)N3CCOC3=O)ccc2c1` (configuration not stated), the GI50 is inactive: > 100 µM.

Turning to `NC1CCC[C@H]1O` (some centres not stated), the GI50 is inactive: > 100 µM.

`CC(=O)Oc1ccc(/C=C/C(=O)NCC(NC(=O)/C=C/c2ccc(OC(C)=O)c(OC(C)=O)c2)C(=O)O)cc1OC(C)=O` (configuration not stated): the GI50 is inactive: > 100 µM.
